For the assay, the system named is MLKL phosphorylation, HT29-L23 human colorectal adenocarcinoma cells. The note with it: read-out: pMLKL HCS Cell Assay (IC50).
On to `COc1ncc(-c2cc(C(F)(F)F)c3c(N)ncnn23)cc1C(=O)NC1CN(C2CCCC2C(O)C(F)(F)F)C[C@@H]1F` (stereo partly drawn) [Example 1362, 5-[4-amino-5-(trifluoromethyl)-pyrrolo[2,1-f][1,2,4]triazin-7-yl]-N-[(3R,4S)-4-fluoro-1-[2-(2,2,2-trifluoro-1-hydroxy-ethyl)cyclopentyl]pyrrolidin-3-yl]-2-methoxypyridine-3-carboxamide], for which the IC50 came to 260 nM.

Turning to `COc1ncc(-c2cc(CN3CCC(F)(F)CC3)c3c(N)ncnn23)cc1C(=O)N[C@@H]1CN(C(=O)OC(C)C(F)(F)C(F)(F)F)C[C@@H]1F` (stereo partly drawn) [Example 1536, 3,3,4,4,4-pentafluorobutan-2-yl (3R,4S)-3-(5-{4-amino-5-[(4,4-difluoropiperidin-1-yl)methyl]pyrrolo[2,1-f][1,2,4]triazin-7-yl}-2-methoxypyridine-3-amido)-4-fluoropyrrolidine-1-carboxylate], the IC50 stood at 7.9 nM.

With `COc1ncc(-c2c(C#N)cc3c(N)ncnn23)cc1C(=O)N[C@@H]1CN(C(=O)C2CCC(C(F)(F)F)CC2)C[C@@H]1F` (single isomer, unassigned) [Example 556], the IC50 was determined as 5380 nM.

Regarding `COc1ncc(-c2cc(C(F)(F)F)c3c(N)ncnn23)cc1C(=O)NCC(C)(O)C(OC)c1ccc(F)cc1` (single isomer, unassigned) [Example 1754, 5-(4-amino-5-(trifluoromethyl)pyrrolo[2,1-f][1,2,4]triazin-7-yl)-N-(3-(4-fluorophenyl)-2-hydroxy-3-methoxy-2-methylpropyl)-2-methoxynicotinamide], the IC50 is 27 nM.

Regarding `COc1ncc(-c2cc(C(F)(F)F)c3c(N)ncnn23)cc1C(=O)NC1CN(C(C)c2c(C)noc2C)C[C@@H]1F` (stereo partly drawn) [Example 1403, 5-[4-amino-5-(trifluoromethyl)-pyrrolo[2,1-f][1,2,4]triazin-7-yl]-N-[(3R,4S)-1-[1-(3,5-dimethyl-1,2-oxazol-4-yl)-ethyl]-4-fluoropyrrolidin-3-yl]-2-methoxypyridine-3-carboxamide], the half-inhibitory concentration (IC50) stood at 92 nM.

For `COc1ncc(-c2cc(C(F)(F)F)c3c(N)ncnn23)cc1C(=O)N1CCCC(C(C)(O)c2ccc(F)cc2)C1` (stereo not shown) [Example 1734, (5-(4-amino-5-(trifluoromethyl)pyrrolo[2,1-f][1,2,4]triazin-7-yl)-2-methoxypyridin-3-yl)(3-(1-(4-fluorophenyl)-1-hydroxyethyl)piperidin-1-yl)methanone], the IC50 came to 284 nM.

In the case of `Cc1ncc(-c2cc(C(F)(F)F)c3c(N)ncnn23)cc1C(=O)N1CCCC(C(O)c2ccc(F)cc2)C1` (single isomer, unassigned) [Example 1729, (5-(4-amino-5-(trifluoromethyl)pyrrolo[2,1-f][1,2,4]triazin-7-yl)-2-methylpyridin-3-yl)(3-((4-fluorophenyl)(hydroxy)methyl)piperidin-1-yl)methanone], the IC50 was found to be 25 nM.

For the compound `COc1ccccc1C(C)N1CC(NC(=O)c2cc(-c3cc(C(F)(F)F)c4c(N)ncnn34)cnc2OC)[C@@H](F)C1` (stereo partly drawn) [Example 1369, 5-[4-amino-5-(trifluoromethyl)-pyrrolo[2,1-f][1,2,4]triazin-7-yl]-N-[(3R,4S)-4-fluoro-1-[1-(2-methoxyphenyl)ethyl]-pyrrolidin-3-yl]-2-methoxy-pyridine-3-carboxamide], the IC50 amounted to 47 nM.

For the compound `COc1ncc(-c2cc(C(F)(F)F)c3c(N)ncnn23)cc1C(=O)N[C@@H]1CN(C(C)c2ccncc2)C[C@@H]1F` (single isomer, unassigned) [Example 438], the IC50 was determined as 2.1 nM.

For the compound `COc1ncc(-c2cc(C(F)(F)F)c3c(N)ncnn23)cc1C(=O)NC1CN(CC(O)(C2CC2)C(F)(F)F)C[C@@H]1F` (stereo partly drawn) [Example 1827, 5-(4-amino-5-(trifluoromethyl)pyrrolo[2,1-f][1,2,4]triazin-7-yl)-N-((3R,4S)-1-(2-cyclopropyl-3,3,3-trifluoro-2-hydroxypropyl)-4-fluoropyrrolidin-3-yl)-2-methoxynicotinamide], the IC50 amounted to 6 nM.

On to `Cc1cc(F)c(-c2cc(C(F)(F)F)c3c(N)ncnn23)cc1C(=O)N[C@@H]1CN(C(=O)C2CC(F)C2)C[C@@H]1F` (stereo partly drawn) [Example 418, 5-[4-amino-5-(trifluoromethyl)pyrrolo[2,1-f][1,2,4]triazin-7-yl]-4-fluoro-N-[(3R,4S)-4-fluoro-1-(3-fluorocyclobutanecarbonyl)pyrrolidin-3-yl]-2-methylbenzamide], for which the IC50 was found to be 4.2 nM.

Regarding `COc1ncc(-c2cc(C(F)(F)F)c3c(N)ncnn23)cc1C(=O)N1CCCC(C(O)c2ccc(F)cc2)C1` (single isomer, unassigned) [Example 1731, (5-(4-amino-5-(trifluoromethyl)pyrrolo[2,1-f][1,2,4]triazin-7-yl)-2-methoxypyridin-3-yl)(3-((4-fluorophenyl)(hydroxy)methyl)piperidin-1-yl)methanone], the IC50 was 28 nM.

As for `COc1ncc(-c2cc(C(F)(F)F)c3c(N)ncnn23)cc1C(=O)N[C@@H]1CN(C(C)c2cccc(C#N)c2)C[C@@H]1F` (single isomer, unassigned) [Example 434], the IC50 was 24 nM.

Consider `COc1ncc(-c2cc(C(F)(F)F)c3c(N)ncnn23)cc1C(=O)N[C@@H]1CN(C(C)c2cncnc2)C[C@@H]1F` (stereo partly drawn) [Example 1389, 5-[4-amino-5-(trifluoromethyl)-pyrrolo[2,1-f][1,2,4]triazin-7-yl]-N-[(3R,4S)-4-fluoro-1-[1-(pyrimidin-5-yl)ethyl]-pyrrolidin-3-yl]-2-methoxy-pyridine-3-carboxamide], for which the IC50 was 85 nM.

`COc1ncc(-c2cc(C(F)(F)F)c3c(N)ncnn23)cc1C(=O)N[C@@H]1CN(C(C)c2cncs2)C[C@@H]1F` (single isomer, unassigned) [Example 444]: the IC50 is 28 nM.

Consider `COc1ncc(-c2cc(C(F)(F)F)c3c(N)ncnn23)cc1C(=O)NCCC(O)c1ccc(F)c(F)c1` (stereo not shown) [Example 135, 5-[4-amino-5-(trifluoromethyl)pyrrolo[2,1-f][1,2,4]triazin-7-yl]-N-[3-(3,4-difluorophenyl)-3-hydroxypropyl]-2-methoxypyridine-3-carboxamide], for which the IC50 stood at 17 nM.

With `COc1ncc(-c2cc(C(F)(F)F)c3c(N)ncnn23)cc1C(=O)NC1CN(C(=O)OC(C)C(F)(F)C(F)(F)F)C[C@@H]1F` (stereo partly drawn) [Example 1456, 3,3,4,4,4-pentafluorobutan-2-yl (3R,4S)-3-{5-[4-amino-5-(trifluoromethyl)pyrrolo[2,1-f][1,2,4]triazin-7-yl]-2-methoxypyridine-3-amido}-4-fluoropyrrolidine-1-carboxylate], the IC50 stood at 97 nM.

With `[2H]C([2H])([2H])Oc1nc(C)c(-c2cc(C(F)(F)F)c3c(N)ncnn23)cc1C(=O)NC1CN(C(=O)C2CCC(F)(F)C2)C[C@@H]1F` (single isomer, unassigned) [Example 515], the IC50 was 196 nM.

In the case of `CCC(O)(CN1C[C@H](F)[C@H](NC(=O)c2cc(-c3cc(C(F)(F)F)c4c(N)ncnn34)cnc2OC)C1)C(F)(F)F` (stereo partly drawn) [Example 1823, 5-(4-amino-5-(trifluoromethyl)pyrrolo[2,1-f][1,2,4]triazin-7-yl)-N-((3R,4S)-4-fluoro-1-(2-hydroxy-2-(trifluoromethyl)butyl)pyrrolidin-3-yl)-2-methoxynicotinamide], the IC50 came out at 24 nM.

One may read the IC50 as the concentration that inhibits the measured activity by half.

Source of the values: patent US11618753B2 (priority 2018, dated 2023).
